Measurements published in the BET-seq Pho4 binding data (Le et al. 2018).
The list shows a part of the results. The energies were worked out here from pooled read counts, against the library average; single values are noisy.

These sequences were tested against T1, Pho4 (S. cerevisiae) (UniProt P07270) (assay: relative binding free energy (BET-seq); higher = weaker binding). Conditions: reference: library average.
T1 sequence: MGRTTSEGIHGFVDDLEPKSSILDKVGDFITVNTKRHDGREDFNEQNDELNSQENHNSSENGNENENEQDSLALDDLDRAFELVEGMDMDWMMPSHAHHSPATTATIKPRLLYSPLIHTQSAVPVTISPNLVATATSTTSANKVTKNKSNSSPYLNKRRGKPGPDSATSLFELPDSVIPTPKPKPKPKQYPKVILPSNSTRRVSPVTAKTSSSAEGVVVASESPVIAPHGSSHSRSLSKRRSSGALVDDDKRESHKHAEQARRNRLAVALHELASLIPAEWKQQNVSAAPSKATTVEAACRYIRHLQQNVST

Relative binding free energy, 0.07 kcal/mol:
AGTTACACGTGTGCTT, AATCACACGTGTGGGT, GTGAACACGTGTTATA

Relative binding free energy, -0.26 kcal/mol:
GGATGCACGTGGGGCA, GCAGGCACGTGGCGTG, ATGCGCACGTGGGCGG

Relative binding free energy, 0.34 kcal/mol:
TTCTTCACGTGTTCTT, TAGTTCACGTGGTGAT

Relative binding free energy, -0.03 kcal/mol:
CTTCGCACGTGCGGGT, AGGGGCACGTGACCGT, TGTGACACGTGGTAGG, GGGTGCACGTGTCGAT, TGATACACGTGTTGGA, ATGGGCACGTGATATT

Relative binding free energy, -0.01 kcal/mol:
GTGTACACGTGTGGAA

Relative binding free energy, -0.12 kcal/mol:
TTGAACACGTGTTGCG, GGCTGCACGTGGGGCT

Relative binding free energy, 0.37 kcal/mol:
TGGTTCACGTGTGTCT, TATTTCACGTGAGTCT, GAGTGCACGTGATGAT

Relative binding free energy, 0.29 kcal/mol:
CAAAGCACGTGAGGTT, ACATTCACGTGAGGGT, TGTTTCACGTGATAGT

Relative binding free energy, 0.06 kcal/mol:
CGGTACACGTGTGTGG, GTTTACACGTGGTCAG, GTTGTCACGTGTCCTG, GTCGTCACGTGGGTGC

Relative binding free energy, -0.22 kcal/mol:
AATGCCACGTGGGGCG, GAGCGCACGTGGGGGC

Relative binding free energy, 0.15 kcal/mol:
ATAGTCACGTGGGTCC, GTTGGCACGTGTTAAC

Relative binding free energy, 0.18 kcal/mol:
GTTGTCACGTGTAACG, TGATTCACGTGGTCTT, TTAGTCACGTGCAGGA

Relative binding free energy, 0.08 kcal/mol:
ATATACACGTGATTAG, TTTAACACGTGCTTGA, TTGAGCACGTGAGTGT, TTTGTCACGTGCTTGG

Relative binding free energy, 0.09 kcal/mol:
AGCGTCACGTGTGAGT, TTGATCACGTGTGATT, TGGGACACGTGTAGCT, TATAACACGTGTCAGT

Relative binding free energy, 0.43 kcal/mol:
ATAATCACGTGAAATG

Relative binding free energy, -0.25 kcal/mol:
GGGGGCACGTGGGCAC, CACTGCACGTGGGGGT

Relative binding free energy, 0.25 kcal/mol:
TAGGGCACGTGAGCAA, ATATTCACGTGTGGTT

Relative binding free energy, 0.28 kcal/mol:
GCGTTCACGTGGTTCT

Relative binding free energy, 0.41 kcal/mol:
TGTTTCACGTGAGGTA

Relative binding free energy, 0.23 kcal/mol:
TTTTTCACGTGAACAT

Relative binding free energy, 0.24 kcal/mol:
GGATTCACGTGTATCT, TGGTTCACGTGCGAGA, CGGTTCACGTGCAGGG, TGTGACACGTGAGGTC, TAATTCACGTGGTGCT, GGCTTCACGTGTGTGT, GCTATCACGTGTTGGT

Relative binding free energy, -0.19 kcal/mol:
GTATGCACGTGGCGGA, TTAAGCACGTGGACGG

Relative binding free energy, 0.05 kcal/mol:
AGGTCCACGTGGTTGC, TGGGTCACGTGCGAGG, ATAAGCACGTGTGATA, CGGTGCACGTGTGTGG, TGGGGCACGTGATGGC, AGAATCACGTGGTGTG, TTGATCACGTGTTTAC, ATATGCACGTGTGCAT, AGTGTCACGTGTAGAC

Relative binding free energy, 0.44 kcal/mol:
GGGTTCACGTGAACGG

Relative binding free energy, 0.11 kcal/mol:
GTGTACACGTGTGACG, TATTGCACGTGAAGAG, GCTTACACGTGCGTGG, TGTGTCACGTGCGGAA, CTGTACACGTGTGTTG, ACGGTCACGTGCGGTT

Relative binding free energy, -0.08 kcal/mol:
TAGAACACGTGGGTTT, AGCAACACGTGGGGGC, TCGGGCACGTGGCTGA, AAGGACACGTGCTGGT, CTGGGCACGTGTAAGG

Relative binding free energy, -0.06 kcal/mol:
AAAGGCACGTGTGTTG, TAAGCCACGTGGTTGT, ACGTGCACGTGTAATG, TGAAGCACGTGCGGTA, GATGACACGTGCGGTG, CTAAGCACGTGTGGTG, AGGTCCACGTGTATTT, GTATGCACGTGGCTGT

Relative binding free energy, 0.55 kcal/mol:
GGTTTCACGTGTTGAA

Relative binding free energy, 0.33 kcal/mol:
GGTATCACGTGTGATC

Relative binding free energy, -0.02 kcal/mol:
TTGGACACGTGGCCTG, CGTCACACGTGTGGTG, ATAAACACGTGTAGTG, GGGTGCACGTGCTTTA, GTGACCACGTGTGGGG, TTCGTCACGTGGGTGT, GAGTGCACGTGGTTCT, AGTCGCACGTGTTTGT, AGTAGCACGTGTGCGG, CCAGGCACGTGTGGTT

Relative binding free energy, -0.05 kcal/mol:
TAAACCACGTGTGGGT, ATGTCCACGTGTAGGT, TCTTGCACGTGGGATT, GGGGACACGTGGGTTC, GGGTGCACGTGCTATG, AGTGACACGTGTCGTT, TTTGACACGTGCGCTT

Relative binding free energy, -0.04 kcal/mol:
GGAGTCACGTGTGCAG, CGGCCCACGTGTGGGT, GGAGGCACGTGTATAA, TTTGGCACGTGCTTGG, TGAGGCACGTGTAAGG, AGGATCACGTGGCGTA

Relative binding free energy, 0.14 kcal/mol:
GTTTTCACGTGGGATA, GTGATCACGTGTTATG, TTCGGCACGTGACTGG, GTATTCACGTGGGAGA

Relative binding free energy, -0.16 kcal/mol:
CGGGCCACGTGGCTGG, GGGAGCACGTGCTTGT, GCGAGCACGTGGGGAT, TGTGGCACGTGCGTTG, CGAAGCACGTGGAGTG

Relative binding free energy, 0.32 kcal/mol:
TCTTTCACGTGTACGT, GAGTTCACGTGTTTGA

Relative binding free energy, 0.21 kcal/mol:
AATTTCACGTGATCTT, TCACTCACGTGTGGGG, AGATTCACGTGTTTAG, GCCGTCACGTGTGTGT, TTTGTCACGTGATCTG

Relative binding free energy, 0.39 kcal/mol:
GGCATCACGTGAGGAG, GTTTTCACGTGCAGGT

Relative binding free energy, -0.24 kcal/mol:
GCGTGCACGTGGGGCA

Relative binding free energy, -0.13 kcal/mol:
GGTAGCACGTGGTGAA, TAGAGCACGTGCGAGT, GCGAGCACGTGGTGGT, CAGGGCACGTGGTTAG

Relative binding free energy, 0.01 kcal/mol:
TTAATCACGTGGAGGA, GTTCTCACGTGGTTAT, GTACTCACGTGGGGTA

Relative binding free energy, 0.42 kcal/mol:
GTAATCACGTGAGGTA, CAGGTCACGTGATGAT

Relative binding free energy, -0.21 kcal/mol:
GCGGGCACGTGGGGCC, ATGGCCACGTGTGCGG

Relative binding free energy, 0.2 kcal/mol:
TTGCTCACGTGTGGGG, GTTGGCACGTGAACGT

Relative binding free energy, -0.28 kcal/mol:
TGAGCCACGTGGTAGT, TTTGGCACGTGCTCAG

Relative binding free energy, 0.04 kcal/mol:
GTGGTCACGTGCGTGA, GGGGCCACGTGTATTA, TTGGGCACGTGGAAAT, TTTGCCACGTGTGTAC, TGGTACACGTGGAAAG, TAATGCACGTGGATGT

Relative binding free energy, -0.2 kcal/mol:
TCTGGCACGTGGTAAT

Relative binding free energy, 0.31 kcal/mol:
GACTTCACGTGTGGGG, TGTCTCACGTGGTTAA

Relative binding free energy, 0.1 kcal/mol:
ATAGTCACGTGGATCG, GTAGTCACGTGGAAGG

Relative binding free energy, 0.12 kcal/mol:
GGGATCACGTGGCAGG, AGCTGCACGTGTGGTC, GGATACACGTGCTAGG, AGTGTCACGTGAATGA, TTGATCACGTGTAGGA, GGTATCACGTGGCGTG

Relative binding free energy, -0.29 kcal/mol:
ATGCGCACGTGGCGTG

Relative binding free energy, 0.19 kcal/mol:
GTGCTCACGTGGTCTG, CGAGTCACGTGGATTT, TGAGACACGTGTGGGC, AAGGTCACGTGGATGC, ACGGTCACGTGTTTCG

Relative binding free energy, -0.09 kcal/mol:
GGGACCACGTGGGGGA, TTGTGCACGTGATCAG, GAATGCACGTGGGAGA, TTGGGCACGTGATTCA

Relative binding free energy, -0.11 kcal/mol:
TAGGGCACGTGGAAGG, CTAAACACGTGGTTGT, CAAAGCACGTGGGGAG, TAAGGCACGTGCGTTG, ATGGGCACGTGGTGGC, CAAGGCACGTGGTATT, TGTGGCACGTGTTGTA

Relative binding free energy, 0.35 kcal/mol:
GCTTTCACGTGTCTTG

Relative binding free energy, -0.1 kcal/mol:
AGTGGCACGTGGCAGG

Relative binding free energy, 0.16 kcal/mol:
TGGGCCACGTGATGGG, GGTCACACGTGTGTGC, GAACGCACGTGTAGGT

Relative binding free energy, 0 kcal/mol:
TGGAACACGTGCTGTG, ACTGTCACGTGTGTTT, GGGTGCACGTGCGTAG, TCGGGCACGTGTGTGA, ACGGTCACGTGGATGT, TAGGGCACGTGTGTTG

Relative binding free energy, 0.22 kcal/mol:
TAATTCACGTGCTATG

Relative binding free energy, -0.18 kcal/mol:
GAGGGCACGTGCTAGG, CTTAGCACGTGGTAGT, TCTCGCACGTGGGTGG

Relative binding free energy, 0.02 kcal/mol:
AAAGTCACGTGGGTGT, AATCACACGTGGGGGA, ATGTACACGTGTTCAT, CGCGTCACGTGGAGGG, GGTTGCACGTGGCTGT

Relative binding free energy, 0.49 kcal/mol:
GGTTTCACGTGAGATC

Relative binding free energy, -0.23 kcal/mol:
TTTGACACGTGGGCGC

Relative binding free energy, 0.17 kcal/mol:
TTCAGCACGTGTTGGC, AATCTCACGTGTTGGG, GTATACACGTGGTATC

Relative binding free energy, -0.15 kcal/mol:
AAGGGCACGTGTGGGT

Relative binding free energy, 0.26 kcal/mol:
TGTCTCACGTGTGTAA, GTGTGCACGTGAGGAC

Relative binding free energy, 0.3 kcal/mol:
CGTCTCACGTGAGGTT, CAGGTCACGTGTGTAT

Relative binding free energy, 0.13 kcal/mol:
TAAGACACGTGTAGGG, TTCTGCACGTGATTCG, GAGAACACGTGGAGTT, CATTTCACGTGGTGTC, GTTAACACGTGATTTT, ATTCGCACGTGAGGTA

Relative binding free energy, 0.03 kcal/mol:
GTAGGCACGTGTAGTT, CATTACACGTGTTATG, GTTGGCACGTGATCGG, TTATACACGTGTGTGT, GCAGGCACGTGTGATT, CATAACACGTGTGGGG

Relative binding free energy, -0.14 kcal/mol:
TGTAGCACGTGGGTAT, ATAGTCACGTGCGTGT, ATGTGCACGTGGTTGT

Relative binding free energy, -0.17 kcal/mol:
TTGGGCACGTGGGCTC, TATGGCACGTGGGTTG, TGAGGCACGTGTACTG, AGTCACACGTGGGGTA
